Assay results published in the supplement of paper PMC9446081.
The whole screen tested about 39,000 compounds, of which about 220 (0.56%) showed activity. The list shows a part of the results.

The compounds below were run on Escherichia coli K-12 BW25113 (assay: relative growth (OD600 normalised to plate interquartile mean) (fraction); higher = less growth inhibition, active = 0.2 or less). Settings: 50 µM; LB; incubation time: overnight (16-24 h).
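Note: static incubation at 37 °C against the wild-type strain, values averaged over two biological replicates.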

| Compound | relative growth |
| --- | --- |
| COc1cc2c(cc1OC)CC(=O)N(CCCN(C)CC1Cc3cc(OC)c(OC)cc31)CC2.Cl (stereo unspecified) | inactive: 0.99 |
| COc1ccc(CN(C)C[C@@H]2Oc3ccc(NS(=O)(=O)c4cn(C)cn4)cc3CC(=O)N([C@H](C)CO)C[C@@H]2C)cc1 | inactive: 1.01 |
| C[C@@H]1CN([C@@H](C)CO)S(=O)(=O)c2ccc(C#CC3(O)CCCC3)cc2O[C@@H]1CN(C)C(=O)Nc1ccccc1 | inactive: 0.994 |
| C[C@@H]1CN([C@H](C)CO)C(=O)Cc2cc(NC(=O)Nc3cccc4ccccc34)ccc2O[C@@H]1CN(C)C(=O)Nc1ccc(C(F)(F)F)cc1 | inactive: 1.04 |
| CC#CC[C@@H](C)[C@H](O)/C=C/[C@@H]1[C@H]2C/C(=C/CCCC(=O)O)C[C@H]2C[C@H]1O | inactive: 0.977 |
| C[C@H](CO)N1C[C@H](C)[C@H](CN(C)S(=O)(=O)c2ccc(F)cc2)Oc2ccc(NS(=O)(=O)c3cccs3)cc2CC1=O | inactive: 0.993 |
| COc1ccc(C#Cc2ccc3c(c2)O[C@H](CN(C)C(=O)CN2CCOCC2)[C@H](C)CN([C@@H](C)CO)S3(=O)=O)cc1 | inactive: 1.02 |
| CN(C)Cc1c(C(=O)N/N=C/c2ccncc2)nnn1-c1nonc1N | inactive: 0.989 |
| COc1ccc(NC(=O)N(C)C[C@H]2OCCCC[C@H](C)Oc3ccc(NS(=O)(=O)c4ccccc4)cc3C(=O)N([C@@H](C)CO)C[C@H]2C)cc1 | inactive: 0.966 |
| C[C@@H]1CN([C@H](C)CO)S(=O)(=O)c2ccc(-c3ccc(F)cc3)cc2O[C@H]1CN(C)S(C)(=O)=O | inactive: 1.01 |
| COc1ccc(S(=O)(=O)Nc2ccc3c(c2)CC(=O)N([C@@H](C)CO)C[C@H](C)[C@@H](CN(C)C(=O)Nc2c(C)noc2C)O3)cc1 | inactive: 1.02 |
| Cc1ccc(-c2ccc3c(c2)O[C@@H](CN(C)Cc2cncnc2)[C@H](C)CN([C@@H](C)CO)S3(=O)=O)cc1 | inactive: 0.996 |
| COc1ccc(NC(=O)N(C)C[C@H]2Oc3ccc(NC(=O)CCN4CCOCC4)cc3CC(=O)N([C@H](C)CO)C[C@H]2C)cc1 | inactive: 0.972 |
| Cc1ccc(S(=O)(=O)N(C)C[C@H]2Oc3ccc(NC(=O)c4ccncc4)cc3CC(=O)N([C@H](C)CO)C[C@@H]2C)cc1 | inactive: 1.02 |
| C[C@@H]1O[C@@H](O[C@H]2[C@H](Oc3cc(O)c4c(=O)cc(-c5ccc(O)cc5)oc4c3)O[C@H](CO)[C@@H](O)[C@@H]2O)[C@H](O)[C@H](O)[C@H]1O | inactive: 0.981 |
| Cc1noc(C)c1NC(=O)N[C@H]1C=C[C@@H](CC(=O)N2CCN(C)CC2)O[C@H]1CO | inactive: 0.987 |
